Source: patent US6147202, “Production of human hemoglobin in transgenic pigs” (dated 2000)

Target: pig beta globin (pig, UniProt P02067)
Assay: reassociation of dissociated globin chains from pig and human hemolysate, isoelectric focusing
Experimental: Reassociation of globin chains was performed essentially as described in Methods in Enzymol. 76:126–133. 25 lambda of pig blood, 25 lambda of human blood, or a 25 lambda mixture of 12.5 lambda human blood and 12.5 lambda pig blood were treated as follows. The blood was pelleted at a setting of 5 on microfuge for 2 minutes, then washed three times with 100 lambda 0.9 percent NaCl. The cells were lysed with 50 lambda H_2O, then spun at high speed to confirm lysis. 50 lambda of the lysed cells was then combined with 50 lambda 0.2 M Na Acetate, pH 4.5, put on ice and then incubated in a cold room overnight. After adding 1.9 ml 0.1 M NaH_2PO_44, pH 7.4 each sample was spun in centricon tubes at 4° C. and 5 K until about 0.5 ml remained. Then 1 ml of 0.1 M NaH_2PO_4 pH 7.4 was added and spun through at about 5 K until about 0.2 ml volume was left. The hemoglobin was then washed from the walls of the centricon tube, an eppendorf adaptor was attached, and a table top microfuge was used to remove each sample from its centricon tube. The samples were then analyzed by isoelectric focusing.
It was possible, however, that this observation could be explained by relatively low levels of human beta globin expression. Alternatively, association between pig alpha globin and human beta globin may be chemically unfavorable. […]

Row | Binder | binding result
1 | human alpha globin (other) VLSPADKTNVKAAWGKVGAHAGEYGAEALERMFLSFPTTKTYFPHFDLSHGSAQVKGHGKKVADALTNAVAHVDDMPNALSALSDLHAHKLRVDPVNFKLLSHCLLVTLAAHLPAEFTPAVHASLDKFLASVSTVLTSKYR | binds
2 | pig alpha globin (other) VLSAADKANVKAAWGKVGGQAGAHGAEALERMFLGFPTTKTYFPHFNLSHGSDQVKAHGQKVADALTKAVGHLDDLPGALSALSDLHAHKLRVDPVNFKLLSHCLLVTLAAHHPDDFNPSVHASLDKFLANVSTVLTSKYR | binds
